Experimental data as given in the RNAGym collection of RNA variant scans (doi:10.7554/elife.90254).
Read counts are not given, so values of variants with three or more changes are uncertain.

B1: LINE1-full (parent)
chain: UACGUAGGUGGUUUUCCCCUGAUAGUGCUAAGGGGGCCUGGAAGUUUGGACUGGGCAGAGCUCAACACAGCGUGGCAAAGUGGCUGUGGCUAGACUGCCUCUCUGGAUUCCUCGUCACUCAGCAGGGCAUCUCUGAGAGAAAUGCC

Variants of: B1
Test: self-cleavage, relative activity (ratio to wild type); higher = more cleavage; in vitro, sequencing; the parent is a self-cleaving ribozyme

| Variant | self-cleavage |
| --- | --- |
| U1C U12G U15C A136U | 1.49 |
| A2G G55A U91C G139A | 0 |
| U1C U52A A59G | 0.2 |
| A2G A22G U45A A117U | 0.99 |
| A2G G10U A142G | 0.55 |
| U1C A6G U26A U132C | 1.05 |
| U1C U14C G86A | 0.12 |
| U1A A57U A78G A142G | 0.07 |
| A2G G32A A67C U87A | 0.26 |
| A2G C66U U91C | 0.12 |
| U1C U96A U100A | 0.09 |
| U1C A77U U91C U143C | 0 |
| A2G A129G U132C | 1.47 |
| U1C A59G U109C U119A | 0.15 |
| A2G U9C A43U A140G | 1.15 |
| U1C U9C U104C | 0.71 |
| A2C A22G A59G U109C | 0 |
| U1C U47C U91C C103A | 0 |
| U1C U20C A50G | 0.91 |
| U1A U45C U73C | 0.53 |
| U1C G58A A124G | 0.09 |
| U1C A2G U62C | 0.62 |
| A2G U5A U143C | 0.41 |
| U1C A57G A142G | 0.51 |

| Variant | self-cleavage |
| --- | --- |
| U1A U20C U73A U85A | 0.21 |
| A2G A30U U62C U102C | 0 |
| U1A U14C A79G U85A | 0.32 |
| A2G G10A U73C U119A | 1.73 |
| U1C A94G U102C | 0.24 |
| U1C A42U U112C | 0.94 |
| U1C U23C A142G | 0.73 |
| U1C U100C A140G | 1.24 |
| U1C A2G G54U A57G A69G | 0.06 |
| U1A C38U U73C | 0.61 |
| U1C U46A A140G A141G | 0.83 |
| U1A A30G A31G A42U | 0.69 |
| U1C A2G G34A U52A U62C A67G U132C A142U | 0.33 |
| U1C U12C A24U U96C A136G | 0.22 |
| U1C U12A U14C | 0.86 |
| U1C A2G A65G A124U | 0.22 |
| U1C U12G A31G U85C U115C G135A | 0 |
| U1C A129U A142G | 0.81 |
| A2G G75U G126A | 0.66 |
| A2G A64G A77U A124G | 0.27 |
| U1C G40A U52A | 0.83 |
| U1C U14G A42G A121G | 0.92 |
| U1C G4A A43G | 1.09 |
| U1C U87A G127A | 0.04 |

| Variant | self-cleavage |
| --- | --- |
| A2G A43G A124U A129G | 1.02 |
| U1C C28A U47C A57U A77C U119C | 0 |
| A2G A24U A65G A117U A129G | 0.33 |
| A2G C37U U96C | 0 |
| U1A U9C G10A A77G | 1.59 |
| U1A C17U U47C C51U | 1.18 |
| U1C U15C U104C | 0 |
| U1C G4A A121G | 0.52 |
| U1C U47A U115C | 1.29 |
| U1C U9C A136G A138G | 1.53 |
| U1G U109A U130C | 1.21 |
| A2C U12G A77G | 2.51 |
| U1C U14C C56A U102C A121G U134C | 0 |
| U1C A69U U102C A141G | 0 |
| A2G A57G A77G A141U | 1.77 |
| A2C U13C U119A A121U | 0.53 |
| U1A U39A U81A A140G | 1.85 |
| U1C A50U A67U A136G | 0.06 |
| U1C U14C A78G A140G A142G | 0.34 |
| U1C G48A A129G | 0.31 |
| U1C G27U A77U U100C A124G | 0.24 |
| U1C G4A A24G U26C A31U A42G | 0 |
| A2G G89A U102C U134C U143A | 0.16 |
| U1C A65G G127A | 0.04 |

| Variant | self-cleavage |
| --- | --- |
| A2G A64U U87A | 0.25 |
| U1C A57U U73C | 0.12 |
| A2G A64U A124G U132C | 0.47 |
| U1C A22G A79G A136G | 0.61 |
| U1C A22G U47C C133U | 2.04 |
| A2G A69G G106U A121G | 0.47 |
| A2G A138G A140U | 0 |
| A2G A107U U108C | 0.81 |
| U1C A64G A67G | 0.21 |
| U1A U14C U85C | 0.36 |
| U1A U14C A50G C71U A124G | 0.09 |
| A2G U5C G32C A67U U108C A121C | 0.61 |
| U1A U45C U62C U73C U81A G105A U134G A141U | 0 |
| U1A U47A A79G | 0.68 |
| U1A G36A A59U U62C A136G | 0.07 |
| U1C G10A U62A U104C | 0.05 |
| A2G G27A C38U A77G U81G U143C | 0.86 |
| U1C G72A A117G | 0.51 |
| U1C C99U U109A A142U | 0.36 |
| A2G A67G A79G | 0 |
| U1C G86A C110U U119C U143A | 0.1 |
| A2G A65G U109C | 0.13 |
| U1C A65G U87C U143A | 0 |
| U1C A31U G53U U62A U100C A121G A141G | 0.08 |

| Variant | self-cleavage |
| --- | --- |
| U1G U104A A107G A141G | 1.21 |
| U1C U46C A138G U143C | 1.8 |
| U1C U46C G48A U100C A117G U119G | 0 |
| A2G U9A U13C U85C U87C | 1.84 |
| A2G A43G C90U A94U U100C U130C | 0.12 |
| U1C U102C C116G | 0.95 |
| U1A U29C G75U U115A A121U | 0.76 |
| A2G A59C A140G | 0.69 |
| A2G A22G U39A A57C A107U U119A | 0 |
| U1C U45C A117G U134C | 0.92 |
| U1C G49A A57G A67G | 0.99 |
| U1C A94G G106A | 0.05 |
| U1A U112C A136G | 1.7 |
| A2G A22U U52C | 0.77 |
| U1C A50C A77G G105A A124G | 0.77 |
| A2G U5A U87A G125A | 0.15 |
| U1C U87C U91A | 0.22 |
| U1C A77G A78G G106A U130C | 0.51 |
| U1C U9G G72A | 0.68 |
| A2G U12A U23C G72A | 1.37 |
| U1C U108C U132C | 1.07 |
| U1C U5A G105U U109C | 0.78 |
| U1C U26A A77G A92G U108C | 0.81 |
| U1C U26A U112C C113U U134A A141G | 0.34 |

| Variant | self-cleavage |
| --- | --- |
| A2G U9C U45C A136C U143A | 0.61 |
| U1C C3U G54A U143C | 0.49 |
| U1C A2G G88U A129G | 0.16 |
| U1C U52A A65G U108C | 0 |
| U1G U5C A22U A59G | 0.43 |
| A2G A140G A142G | 0.57 |
| A2G A22G G32A | 0.77 |
| A2G A67G U73G G114A U119C | 0.68 |
| U1C A22G U87C U132C | 0.4 |
| A2G U12A A31G G34C U87A | 0.35 |
| U1C U26C U102C A142G | 1.47 |
| U1C A77U G89A U100C A124G | 0.04 |
| U1C U47C A142G | 0.96 |
| U1C G4A A22U U47C U102C | 1.53 |
| A2C C19U A42U C63A U119C | 0.11 |
| U1C A24C U81A U112C A129G | 1.6 |
| U1A U14C A31U A121U | 1.33 |
| U1C A57U A64G C84A | 0.15 |
| U1A U81A A94G U115C | 0 |
| U1C A6G U13C A30U U39A A92G U100C | 0 |
| U1A U13A A77G A121C A138U | 1.31 |
| U1C C84G A124G U134A | 0.08 |
| U1C U9C A59G | 0 |
| U1A U29C C71U A94G G114A | 0.35 |

| Variant | self-cleavage |
| --- | --- |
| U1C C37U U47A G60A U104C | 0 |
| A2G A77U A138G | 0.78 |
| U1C U12C A22G U81A C116U | 1.41 |
| U1C A64G U100C | 0.77 |
| U1C U15C A92C | 0 |
| U1C U12G A64G A77U | 0.5 |
| U1A A24G C51U | 0.79 |
| U1A A67U A124U U134A A141G | 0.19 |
| U1C U13A U20G G35A A124G | 0.5 |
| U1C G11A G27A A59G G72A G106U | 0.03 |
| U1C U39C A59G U119C | 0 |
| U1C U5A A64U A129G | 0.41 |
| A2C U39A G82A | 1.65 |
| A2C A78G U104C G122A | 1.05 |
| A2G A77G U130C A142C | 0.92 |
| U1A G35U A43U A64G A121G | 0.18 |
| U1A U26A A77G | 0.48 |
| A2G U12A A77G U119C | 1.56 |
| U1C G33C U52C | 0.54 |
| U1C U20C A22G A30G A31G G72A A136G | 0.77 |
| A2G C37A A142G | 1.3 |
| U1C G4A U13C C120U A140U | 1.3 |
| U1C G80A U104A | 0.93 |
